Source: paper PMC9911399, “Two distinct binding modes provide the RNA-binding protein RbFox with extraordinary sequence specificity”
Positions count from the first letter of the chain named. The list shows a part of the results.

B1: AGUCUUG (DNA:RNA)
RNA: GGGAGACCGGAAUUCAGAUUGUCCAGUCUUGUUAAAUCCCGUCGUAGCCACCA
DNA 1: CAATCTGAATTCCGGTCTCCC
DNA 2: TGGTGGCTACGACGGGATT
B2: GUAGCAG (DNA:RNA)
RNA: B1 RNA with A25G, G26U, U27A, C28G, U29C, U30A
DNA 1: CAATCTGAATTCCGGTCTCCC
DNA 2: TGGTGGCTACGACGGGATT
B3: AUGAAAC (DNA:RNA)
RNA: B1 RNA with G26U, U27G, C28A, U29A, U30A, G31C
DNA 1: CAATCTGAATTCCGGTCTCCC
DNA 2: TGGTGGCTACGACGGGATT
B4: CCCAGGC (DNA:RNA)
RNA: GGGAGACCGGAAUUCAGAUUGUCCCCCAGGCUUAAAUCCCGUCGUAGCCACCA
DNA 1: CAATCTGAATTCCGGTCTCCC
DNA 2: TGGTGGCTACGACGGGATT
B5: UCGGUUC (DNA:RNA)
RNA: B1 RNA with A25U, G26C, U27G, C28G, G31C
DNA 1: CAATCTGAATTCCGGTCTCCC
DNA 2: TGGTGGCTACGACGGGATT
B6: GUUGUUC (DNA:RNA)
RNA: B1 RNA with A25G, G26U, C28G, G31C
DNA 1: CAATCTGAATTCCGGTCTCCC
DNA 2: TGGTGGCTACGACGGGATT
B7: UGAAGGU (DNA:RNA)
RNA: B4 RNA with C25U, C26G, C27A, C31U
DNA 1: CAATCTGAATTCCGGTCTCCC
DNA 2: TGGTGGCTACGACGGGATT
B8: UCAAUGG (DNA:RNA)
RNA: B4 RNA with C25U, C27A, G29U, C31G
DNA 1: CAATCTGAATTCCGGTCTCCC
DNA 2: TGGTGGCTACGACGGGATT
B9: GCCUCCC (DNA:RNA)
RNA: B4 RNA with C25G, A28U, G29C, G30C
DNA 1: CAATCTGAATTCCGGTCTCCC
DNA 2: TGGTGGCTACGACGGGATT
B10: GGUUGCC (DNA:RNA)
RNA: B1 RNA with A25G, C28U, U29G, U30C, G31C
DNA 1: CAATCTGAATTCCGGTCTCCC
DNA 2: TGGTGGCTACGACGGGATT
B11: UAGCAAU (DNA:RNA)
RNA: B1 RNA with A25U, G26A, U27G, U29A, U30A, G31U
DNA 1: CAATCTGAATTCCGGTCTCCC
DNA 2: TGGTGGCTACGACGGGATT
B12: ACAUCAC (DNA:RNA)
RNA: B4 RNA with C25A, C27A, A28U, G29C, G30A
DNA 1: CAATCTGAATTCCGGTCTCCC
DNA 2: TGGTGGCTACGACGGGATT
B13: GGCCUGA (DNA:RNA)
RNA: B1 RNA with A25G, U27C, U30G, G31A
DNA 1: CAATCTGAATTCCGGTCTCCC
DNA 2: TGGTGGCTACGACGGGATT
B14: AUAUUCC (DNA:RNA)
RNA: B1 RNA with G26U, U27A, C28U, U30C, G31C
DNA 1: CAATCTGAATTCCGGTCTCCC
DNA 2: TGGTGGCTACGACGGGATT
B15: UAGCCAC (DNA:RNA)
RNA: B1 RNA with A25U, G26A, U27G, U29C, U30A, G31C
DNA 1: CAATCTGAATTCCGGTCTCCC
DNA 2: TGGTGGCTACGACGGGATT
B16: AAGCUUA (DNA:RNA)
RNA: B1 RNA with G26A, U27G, G31A
DNA 1: CAATCTGAATTCCGGTCTCCC
DNA 2: TGGTGGCTACGACGGGATT
B17: GUUUGGU (DNA:RNA)
RNA: B4 RNA with C25G, C26U, C27U, A28U, C31U
DNA 1: CAATCTGAATTCCGGTCTCCC
DNA 2: TGGTGGCTACGACGGGATT
B18: CAUCUGA (DNA:RNA)
RNA: B1 RNA with A25C, G26A, U30G, G31A
DNA 1: CAATCTGAATTCCGGTCTCCC
DNA 2: TGGTGGCTACGACGGGATT
B19: CCGCGGC (DNA:RNA)
RNA: B4 RNA with C27G, A28C
DNA 1: CAATCTGAATTCCGGTCTCCC
DNA 2: TGGTGGCTACGACGGGATT
B20: AUUUUUU (DNA:RNA)
RNA: B1 RNA with G26U, C28U, G31U
DNA 1: CAATCTGAATTCCGGTCTCCC
DNA 2: TGGTGGCTACGACGGGATT
B21: ACGCACC (DNA:RNA)
RNA: B1 RNA with G26C, U27G, U29A, U30C, G31C
DNA 1: CAATCTGAATTCCGGTCTCCC
DNA 2: TGGTGGCTACGACGGGATT
B22: GGAUGUU (DNA:RNA)
RNA: B1 RNA with A25G, U27A, C28U, U29G, G31U
DNA 1: CAATCTGAATTCCGGTCTCCC
DNA 2: TGGTGGCTACGACGGGATT
B23: GCUGGCA (DNA:RNA)
RNA: B4 RNA with C25G, C27U, A28G, G30C, C31A
DNA 1: CAATCTGAATTCCGGTCTCCC
DNA 2: TGGTGGCTACGACGGGATT
B24: UAGAGAA (DNA:RNA)
RNA: B4 RNA with C25U, C26A, C27G, G30A, C31A
DNA 1: CAATCTGAATTCCGGTCTCCC
DNA 2: TGGTGGCTACGACGGGATT
B25: UCAUGUG (DNA:RNA)
RNA: B1 RNA with A25U, G26C, U27A, C28U, U29G
DNA 1: CAATCTGAATTCCGGTCTCCC
DNA 2: TGGTGGCTACGACGGGATT
B26: GGGCUGA (DNA:RNA)
RNA: B1 RNA with A25G, U27G, U30G, G31A
DNA 1: CAATCTGAATTCCGGTCTCCC
DNA 2: TGGTGGCTACGACGGGATT
B27: UGCAAGU (DNA:RNA)
RNA: B4 RNA with C25U, C26G, G29A, C31U
DNA 1: CAATCTGAATTCCGGTCTCCC
DNA 2: TGGTGGCTACGACGGGATT
B28: AGGCGCU (DNA:RNA)
RNA: B1 RNA with U27G, U29G, U30C, G31U
DNA 1: CAATCTGAATTCCGGTCTCCC
DNA 2: TGGTGGCTACGACGGGATT
B29: CAAUCUA (DNA:RNA)
RNA: B1 RNA with A25C, G26A, U27A, C28U, U29C, G31A
DNA 1: CAATCTGAATTCCGGTCTCCC
DNA 2: TGGTGGCTACGACGGGATT
B30: UGCGGAA (DNA:RNA)
RNA: B4 RNA with C25U, C26G, A28G, G30A, C31A
DNA 1: CAATCTGAATTCCGGTCTCCC
DNA 2: TGGTGGCTACGACGGGATT
B31: AGGAAAC (DNA:RNA)
RNA: B1 RNA with U27G, C28A, U29A, U30A, G31C
DNA 1: CAATCTGAATTCCGGTCTCCC
DNA 2: TGGTGGCTACGACGGGATT

biological target: T1, RBFOX1 RRM RbFoxmut (Fox-RRM*) (Homo sapiens, UniProt Q9NWB1 109-208, R118D;E147R;N151S;E152T); experiment: EMSA; HiTS-Eq, 1 nM pool, 10 min; buffer printed only for the single-RNA assays: 10 mM Tris pH 7.5, 150 mM NaCl, 3.4 mM EDTA, 0.001% NP-40, 30 C; conditions: tags: His6 N-terminal (pET28a); label: 5' 32P
T1 sequence: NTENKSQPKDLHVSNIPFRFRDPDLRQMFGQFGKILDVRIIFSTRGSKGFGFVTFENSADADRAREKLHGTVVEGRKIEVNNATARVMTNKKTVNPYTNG
Outline: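 Purified wild-type or mutant RbFox RRM at increasing concentrations was equilibrated with 1 nM of 5′-radiolabelled RNA carrying 7 randomized nucleotides for 10 min in 50 µL. Unbound RNA was separated by 8% native PAGE and sequenced. Relative association constants came from read-count changes of each RNA species compared with the control reaction, normalised to the cognate motif.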

Binder	binding signal
B1	0.459 KA relative to UGCAUGU
B2	0.105 KA relative to UGCAUGU
B3	0.125 KA relative to UGCAUGU
B4	0.0852 KA relative to UGCAUGU
B5	0.112 KA relative to UGCAUGU
B6	0.106 KA relative to UGCAUGU
B7	0.0671 KA relative to UGCAUGU
B8	0.0834 KA relative to UGCAUGU
B9	0.0539 KA relative to UGCAUGU
B10	0.141 KA relative to UGCAUGU
B11	0.058 KA relative to UGCAUGU
B12	0.116 KA relative to UGCAUGU
B13	0.171 KA relative to UGCAUGU
B14	0.0873 KA relative to UGCAUGU
B15	0.0907 KA relative to UGCAUGU
B16	0.126 KA relative to UGCAUGU

Binder	binding signal
B17	0.285 KA relative to UGCAUGU
B18	0.0523 KA relative to UGCAUGU
B19	0.0909 KA relative to UGCAUGU
B20	0.13 KA relative to UGCAUGU
B21	0.121 KA relative to UGCAUGU
B22	0.213 KA relative to UGCAUGU
B23	0.145 KA relative to UGCAUGU
B24	0.0734 KA relative to UGCAUGU
B25	0.149 KA relative to UGCAUGU
B26	0.222 KA relative to UGCAUGU
B27	0.103 KA relative to UGCAUGU
B28	0.0903 KA relative to UGCAUGU
B29	0.0632 KA relative to UGCAUGU
B30	0.143 KA relative to UGCAUGU
B31	0.0743 KA relative to UGCAUGU
